Data as given in PubChem BioAssay AID588501 (NMMLSC, 2011).
About 420 (0.12%) of roughly 360,000 compounds were called active. This list was built around the results that the source calls inconclusive (neither active nor inactive); the mix of calls is not that of the screen. Rule as the data show it: active = inhibition above about 30%; inconclusive = no clear call, values can overlap the other calls; inactive = below that.

Biological target: Lethal factor (Bacillus anthracis) (UniProt P15917)
Assay: anthrax lethal factor cleavage blockers – biochemical, multiplex microsphere, MLPCN library, primary screen (AID 588501); also: plate controls were buffer without enzyme for full effect and enzyme alone for no effect
Settings: multiplex microsphere protease cleavage assay, LF; at 10 µM; hits give high values

Sequence of UniProt P15917 (P15917 whole entry, looked up): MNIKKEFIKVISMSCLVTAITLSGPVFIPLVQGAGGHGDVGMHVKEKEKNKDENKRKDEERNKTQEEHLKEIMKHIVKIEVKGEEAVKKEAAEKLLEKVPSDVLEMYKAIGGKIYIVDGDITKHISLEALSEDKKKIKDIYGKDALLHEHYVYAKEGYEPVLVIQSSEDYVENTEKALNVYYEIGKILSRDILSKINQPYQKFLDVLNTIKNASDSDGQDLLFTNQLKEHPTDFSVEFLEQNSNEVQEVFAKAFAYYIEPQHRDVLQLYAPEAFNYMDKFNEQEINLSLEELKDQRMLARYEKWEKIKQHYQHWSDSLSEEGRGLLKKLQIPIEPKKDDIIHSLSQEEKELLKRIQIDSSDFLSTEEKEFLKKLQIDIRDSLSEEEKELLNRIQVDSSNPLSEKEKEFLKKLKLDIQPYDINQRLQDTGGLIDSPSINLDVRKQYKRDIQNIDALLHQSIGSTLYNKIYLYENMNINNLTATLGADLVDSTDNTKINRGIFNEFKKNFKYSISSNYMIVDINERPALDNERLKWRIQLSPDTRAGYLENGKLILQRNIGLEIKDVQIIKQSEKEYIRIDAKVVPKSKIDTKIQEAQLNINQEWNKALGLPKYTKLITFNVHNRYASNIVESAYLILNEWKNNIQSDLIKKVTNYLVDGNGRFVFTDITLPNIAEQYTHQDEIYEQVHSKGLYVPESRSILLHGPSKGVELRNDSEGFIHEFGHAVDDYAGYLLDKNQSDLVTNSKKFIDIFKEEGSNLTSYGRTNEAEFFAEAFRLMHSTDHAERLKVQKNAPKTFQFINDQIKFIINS

| Structure (SMILES) | inhibition |
| --- | --- |
| O=C(NCc1ccccc1)C1CCN(c2nc(-c3ccccc3)nc3c2CCC3)CC1 | inconclusive: 4.3% |
| O=[N+]([O-])c1ccc(/C=C/C2=NN(c3ccccc3)C(c3ccco3)C2)cc1 (centres undefined) | active: 39.8% |
| Cc1ccc(C(=O)NCC(=O)N(C)Cc2cccc(F)c2)s1 | inconclusive: 6.7% |
| COCCN(C(=O)COC(=O)CSc1ccc(Cl)cc1)c1c(N)n(Cc2ccccc2)c(=O)[nH]c1=O | inconclusive: -4.9% |
| CC(Oc1ccccc1Cl)C(=O)/C=C/N(C)C (centres undefined) | inactive: 0.4% |
| COc1ccc2cc(C3=CC(=O)CC(C)(C)C3=O)ccc2c1 | active: 32.1% |
| CCN(CC)c1ccc(C(=C2C=CC(=[N+](CC)CC)C=C2)c2ccccc2)cc1 | inconclusive: -32.7% |
| CCCn1c(SCC(=O)N(C)CC(=O)Nc2ccc(C)cc2)n[nH]c1=O | inconclusive: -0.5% |
| CC(Sc1nnc(C2CC2)n1C1CC1)C(=O)NCc1cccs1 (centres undefined) | inconclusive: -3.5% |
| O=[N+]([O-])C1C(c2ccccc2)=NOC1c1ccccc1O (centres undefined) | inactive: -5.5% |
| O=C(CN1CCN(c2ccccc2O)CC1)NC(=O)NCc1ccccc1 | active: 50.8% |
| O=C(Nc1sc2c(c1C(=O)c1ccc(Cl)cc1)CCCC2)c1cccnc1 | inconclusive: 1.4% |
| CCNc1ccc(Br)cc(C(=O)/C=C/c2ccc(Cl)cc2Cl)c1=O | active: 43.3% |
| Cc1ccc(-n2c(-c3cccnc3)n[nH]c2=S)c(C)c1 | inconclusive: -147% |
| CCOC(=O)c1sc(C(=O)OCC)c(OCCO)c1OCCO | inconclusive: 6.7% |
| CCN(CC)c1ccc(-c2sc(Nc3ccccc3)n[n+]2-c2ccc(F)cc2)cc1 | active: 43.5% |
| Cc1ccccc1NC(=O)CSc1nnc2ccc(-c3cccnc3)nn12 | inconclusive: -50.7% |
| COc1ccc(CCNC(=O)c2cc(C3CC3)nc3c2cnn3C(C)C)cc1OC | inconclusive: -2.6% |
| CCCn1c(N)c(N(CCOC)C(=O)c2ccc(N(C)S(=O)(=O)c3ccc(C)cc3)cc2)c(=O)[nH]c1=O | inconclusive: -0.9% |
| CCc1ccc(Nc2nc3ccccc3c(=O)s2)cc1 | active: 32.8% |
| Cc1ccc2c(c1)CCCN2CC(=O)Nc1cccc(S(=O)(=O)N2CCCC2)c1 | inconclusive: -38.2% |
| CCOC(=O)c1ccccc1NC(=O)CN(c1ccccc1C)S(C)(=O)=O | inconclusive: -0.7% |
| Cc1c(C(=O)N2CCCCC2)c(S(=O)(=O)N2CCC(C)CC2)c(C)n1C | inactive: 3.3% |

| Structure (SMILES) | inhibition |
| --- | --- |
| Cc1ccc(-c2ccc(/C=C3\C(=O)ON=C3c3ccccc3)o2)c([N+](=O)[O-])c1 | inconclusive: -24.5% |
| CNC(=O)c1ccc(-c2cc(C(F)(F)F)nn2C)s1 | inconclusive: -12.8% |
| COc1cccc(NC(=O)CN(C)CC(=O)Nc2ccc(C)c([N+](=O)[O-])c2)c1 | inactive: -1.8% |
| O=c1ccc2cc3c4c(c2o1)CCCN4CCC3 | inconclusive: -14.1% |
| Cc1ccc(N(C)S(=O)(=O)c2cccc(C(=O)Oc3ccc4c(C)cc(=O)oc4c3)c2)cc1 | inactive: -1.6% |
| Cc1ccc(C(=O)N(CCC2=CCCCC2)c2c(N)n(Cc3ccccc3)c(=O)[nH]c2=O)o1 | inconclusive: 1.7% |
| O=C(Nc1ccc(Br)cc1)C1OCCc2ccccc21 (centres undefined) | inactive: -1.4% |
| c1cc(N2CCCC2)ccc1C(c1nnnn1C1CCCCC1)N1CCOCC1 (centres undefined) | inconclusive: -29.7% |
| c1ccc(OCCn2cnc3ccccc32)cc1 | inactive: -4.1% |
| Cc1nc(-c2ccc(Cl)cc2)sc1C(=O)NN | inconclusive: 6.6% |
| Fc1ccc(C2=CC(c3ccco3)n3ncnc3N2)cc1 (centres undefined) | inactive: -0.4% |
| O=[N+]([O-])/C=C/c1cn(Cc2ccc(F)cc2)c2ccccc12 | active: 31.2% |
| CCOC(=O)N1CCN(S(=O)(=O)CCNC(=O)c2ccc(OC)cc2)CC1 | inconclusive: 6.1% |
| O=C(COc1ccccc1F)N1N=C(c2cccs2)CC1c1ccco1 (centres undefined) | inconclusive: -1% |
| CCn1c(=O)c(C(=O)NCc2ccccc2)c(O)c2ccccc21 | active: 47.9% |
| CSCCC(NC(=O)c1ccc(Cl)c([N+](=O)[O-])c1)C(=O)N1CCN(C/C=C/c2ccccc2)CC1 (centres undefined) | inconclusive: -4% |
| CCC(c1nnnn1CCOC)N(Cc1cc2cc(C)c(C)cc2[nH]c1=O)CC1CCCO1 (centres undefined) | inactive: -1.5% |
| CCN(CC(=O)NCc1ccco1)S(=O)(=O)c1ccc(OC)cc1 | inconclusive: -0.6% |
| Cc1ccc(/C=N/NC(=O)c2cccnc2)s1 | inconclusive: -7.7% |
| CCOc1ccc(/C=C/C2=Cc3c(sc(NC(=O)CSc4n[nH]c(N)n4)c3C#N)C(C)(C)C2)cc1 | active: 57.9% |
| O=C1Nc2ccccc2C12OCC1(CO2)COC2(OC1)C(=O)Nc1ccccc12 (centres undefined) | inconclusive: -86.8% |
| C=CCOC(=O)COc1ccc2c(C)c(C)c(=O)oc2c1 | inconclusive: -19% |
| Cc1cc2c(=O)n(C)c(SCC(=O)NC3CCCC3)nc2s1 | inconclusive: 1.7% |

| Structure (SMILES) | inhibition |
| --- | --- |
| COc1ccc(Cl)cc1C(=O)O/N=C(\N)c1ccccn1 | active: 32.6% |
| NC(=S)Nc1cccc2cc3ccccc3cc12 | inactive: 4.6% |
| CC1(C)CC2CC(C)(CN2S(=O)(=O)c2cccc(C(=O)OCC(=O)NC(N)=O)c2)C1 (centres undefined) | inconclusive: -36.9% |
| COc1ccccc1CNc1ccc(N2CCOCC2)c(C(=O)O)c1 | inconclusive: 21.7% |
| CC(C)CNS(=O)(=O)c1cc(C(=O)N2CCOCC2)c(Cl)cc1Cl | inconclusive: 37.3% |
| CCN(CC)C(=O)C(Sc1ccccc1)c1ccccc1 (centres undefined) | inconclusive: -15.4% |
| Cc1ccc(-n2ccnc(SCC(=O)NCCc3ccccc3)c2=O)cc1F | inconclusive: -0.3% |
| Cc1cccc(NC(=O)Cn2nnc3sc4c(c3c2=O)CC(C)(C)OC4)c1 | inconclusive: -12% |
| Cc1nn(C)c(C(=O)NC(=S)Nc2ccc([N+](=O)[O-])cc2)c1Cl | inconclusive: -5.7% |
| Cc1cc(C)n2c(SCCO)nnc2n1 | inconclusive: -2.2% |
| CCc1c(C(=O)NCCc2ccc(OC)c(OC)c2)[nH]c(C)c1C(C)=O | inconclusive: -5% |
| Cc1ccc2nc3c(cc(C(=O)NCC4CCCO4)c(=N)n3CC3CCCO3)c(=O)n2c1 (centres undefined) | active: 32.9% |
| COc1ccc2c(c1)c(-c1csc(N)n1)c(C)n2C | inconclusive: -13.4% |
| CCN(C(=O)COC(=O)CNS(=O)(=O)c1ccc(SC)c([N+](=O)[O-])c1)C1CCCCC1 | inconclusive: -7.1% |
| O=C(NC1(C(F)(F)F)C(=O)Nc2c1c(=O)[nH]c(=O)n2-c1ccccc1)c1ccncc1 (centres undefined) | inconclusive: -18.1% |
| O=C(CSc1ncnc2sccc12)Nc1ccc(S(=O)(=O)N2CCOCC2)cc1 | inconclusive: -1.4% |
| Cc1ccc(F)c(S(=O)(=O)NC(=O)C2(C)CCN2C(=O)Cc2cccs2)c1 (centres undefined) | inactive: 3.3% |
| CON/C=C(\C=Nc1ccccc1)c1ncc(C(F)(F)F)cc1Cl | inconclusive: -45.9% |
| O=C(c1cccc(F)c1)N1CCN(c2cc(N3CCCCC3)c(F)cc2[N+](=O)[O-])CC1 | inactive: 0.7% |
| COCCn1c(=S)[nH]c2cc(C(=O)NC3CCCCCC3)ccc2c1=O | inactive: 1.7% |
| Cc1nc2ccc([N+](=O)[O-])cc2c(=O)n1Cc1cccc(F)c1 | active: 60.4% |
| Cc1ccc(/C=N/NC(=O)c2ccoc2C)s1 | inactive: 0.6% |
| CCc1ccccc1N1CN(Cc2cccnc2)CNC1=S | inconclusive: 2.4% |

| Structure (SMILES) | inhibition |
| --- | --- |
| O=C(O)c1ccc(C(=O)Nc2cccc3ccccc23)c(C(=O)O)c1 | inactive: -4.8% |
| CCC1(CC)Cc2ccccc2C2=C(C(=O)N3CCCCC3)C(=O)C(=O)N21 | inactive: 0% |
| C=CCSc1nnnn1-c1ccc(OC)cc1 | inconclusive: -170% |
| CCN(CC)S(=O)(=O)c1cc(NC(=O)C2CSC3(C)CCC(=O)N23)ccc1C (centres undefined) | inactive: 14.2% |
| CCCc1cc(=O)[nH]c(SCC(=O)c2cc(C)n(C(C)COC)c2C)n1 (centres undefined) | inconclusive: -24.2% |
| CCC1(C)Cc2c(C#N)c(SC)nc(N3CCOCC3)c2CO1 (centres undefined) | active: 32.1% |
| COc1ccc(S(=O)(=O)N2CCN(C(=O)c3ccccn3)CC2)cc1 | inconclusive: -3% |
| CCC1CCCCN1C(=O)COC(=O)CN(C)S(=O)(=O)c1ccc(NC(C)=O)cc1 (centres undefined) | inconclusive: 3.5% |
| Cc1ccc(-n2c(SCC(=O)NCC3CCCO3)nc3ccccc3c2=O)cc1C (centres undefined) | inconclusive: 5.5% |
| CC(O)c1cccc(N=Cc2ccc3ccccc3c2O)c1 (centres undefined) | active: 41.9% |
| Cc1ccc(C2=N/C(=C/c3cccs3)C(=O)N2Nc2ccccc2)cc1 | active: 58.4% |
| CCN1CCc2c(sc(NC(=O)c3ccc(S(=O)(=O)N4CCOCC4)cc3)c2C(N)=O)C1 | inconclusive: -3.5% |
| Cc1c(Cl)cccc1N1C(=O)C2ON(c3ccccc3)C(c3cccnc3)C2C1=O (centres undefined) | inactive: 1.9% |
| O=C(O)c1cc(-c2ccccc2)c(N2CCOCC2)s1 | active: 69.2% |
| Cc1ccc(C(=O)COC(=O)C2CC(=O)N(c3nc(-c4ccccc4)cs3)C2)cc1 (centres undefined) | inconclusive: -24.2% |
| Cc1ccc2nc(C)cc(C(=O)OCC(=O)Nc3c(C)n(C)n(-c4ccccc4)c3=O)c2c1 | inactive: -5% |
| O=C(Cn1c2ccccc2c(=O)c2ccccc21)Nc1cccc(F)c1 | inactive: -0.8% |
| Cc1ccccc1C(=O)NCC(c1ccco1)N1CCc2ccccc2C1 (centres undefined) | inconclusive: -2% |
| O=C(Nc1ccc(CN2CCS(=O)(=O)CC2)cc1)c1ccc(C(F)(F)F)cc1 | active: 30.1% |
| CCOc1ccc(CCNC(=O)COC(=O)CCc2cc(OC)c(OC)c(OC)c2)cc1OCC | inconclusive: 2.7% |
